According to article PMC6919601, “Identification of Plasmodium dipeptidyl aminopeptidase allosteric inhibitors by high throughput screening” (PLoS ONE, 2019):
Screen size: about 110,000 compounds; about 230 (0.21%) showed an effect of 50% or more. The list shows a part of the results.

Biological target: DPAP1 (Plasmodium falciparum, UniProt Q8IIJ9)
Assay: primary screen, percent inhibition; read by cleavage of a fluorogenic dipeptide substrate; higher = more effect of the substance
Set-up: species or system P. falciparum D10 trophozoite lysates; single well
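Note: 30 min substrate incubation versus DMSO and 10 µM JCP410 controls.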

Chain of DPAP1 (Q8IIJ9 whole entry, looked up): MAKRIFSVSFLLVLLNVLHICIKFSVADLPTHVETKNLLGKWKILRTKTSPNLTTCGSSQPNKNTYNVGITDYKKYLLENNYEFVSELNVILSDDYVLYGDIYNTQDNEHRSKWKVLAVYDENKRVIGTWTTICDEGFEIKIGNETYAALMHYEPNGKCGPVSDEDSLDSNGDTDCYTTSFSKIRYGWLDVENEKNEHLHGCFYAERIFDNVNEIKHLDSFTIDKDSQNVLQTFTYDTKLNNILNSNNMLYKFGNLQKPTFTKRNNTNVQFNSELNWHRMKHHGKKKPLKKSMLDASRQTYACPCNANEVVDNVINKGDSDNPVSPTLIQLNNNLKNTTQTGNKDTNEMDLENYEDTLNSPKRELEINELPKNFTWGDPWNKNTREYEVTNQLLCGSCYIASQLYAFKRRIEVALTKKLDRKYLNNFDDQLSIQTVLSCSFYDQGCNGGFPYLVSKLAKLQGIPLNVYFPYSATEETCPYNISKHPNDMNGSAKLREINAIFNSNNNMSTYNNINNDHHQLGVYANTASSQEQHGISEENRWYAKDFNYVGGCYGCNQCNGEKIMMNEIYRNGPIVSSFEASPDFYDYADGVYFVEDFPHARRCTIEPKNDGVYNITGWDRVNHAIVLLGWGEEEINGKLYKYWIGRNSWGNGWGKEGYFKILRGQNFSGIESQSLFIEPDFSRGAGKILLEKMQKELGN

| Structure (SMILES) | % Inhibition @ 10 uM |
| --- | --- |
| CC(=O)c1ccc2c(c1)c1ccccc1n2Cc1ccccc1 | 5.44% |
| O=C(Cn1c(=O)c2cccn2c2cccnc21)N1CCC(Cc2ccccc2)CC1 | -1.24% |
| CC(=O)O[C@@H]1NC(=O)[C@H]1NC(=O)C1(NC(=O)c2ccc(-c3csc(N4CCN(C)CC4)n3)cc2)CCCCC1 | 1.7% |
| COC(=O)c1ccc2c(C(=O)C(F)(F)F)cn(CC(=O)NC(C)C)c2c1 | 0.895% |
| Nc1cnn(C2OC(COC(=O)c3ccccc3)C(O)C2O)c(=O)n1 (stereo not drawn) | 1.11% |
| COc1ccc(N2CCn3c2nc2c3c(=O)n(Cc3ccccc3)c(=O)n2C)cc1 | 0.51% |
| NC(=O)c1c(NC(=O)COc2ccc(Cl)cc2)sc2c1CCCCC2 | 65.1% |
| C/C(=C\C(=O)Nc1ccc(OCc2ccccc2)cc1)C(=O)O | 4.93% |
| Cc1nc2ccccc2nc1C(N)=O | 3.85% |
| Cc1cc2c(c(=O)o1)C(c1ccc(Br)o1)C(C#N)=C(N)O2 (stereo not drawn) | 3.01% |
| COc1ccc(C2(C(=O)Nc3ccc(C(=O)Nc4ccc(OC)cc4OC)cc3)CCOCC2)cc1 | 3.9% |
| FC(F)Oc1ccc(Cl)cc1C1C=C(c2cccs2)Nc2ncnn21 (stereo not drawn) | 1.73% |
| N#C/C(=C\c1ccccc1Cl)c1nc(-c2cc3c(ccc4ccccc43)oc2=O)cs1 | 3.74% |
| CC(C)c1nnc(N2C(=O)c3oc4ccccc4c(=O)c3C2c2ccc(Cl)cc2)s1 (stereo not drawn) | -8.55% |
| N#Cc1c(-c2ccc([N+](=O)[O-])cc2)cc(C2CC2)nc1N | -4.04% |
| O=C(NCC1CCCO1)c1cc2nc(-c3ccc(Br)cc3)cc(C(F)(F)F)n2n1 (stereo not drawn) | 2.4% |
| O=C(c1cc(=O)c2cc(Cl)ccc2o1)N(Cc1cccs1)C1CCS(=O)(=O)C1 (stereo not drawn) | 6.56% |
| COc1ccc(-n2cc(-c3ccccc3)c3c(NCCCN4CCCC4=O)ncnc32)cc1 | 2.4% |
| Cc1c(C(=O)NC2CCCCC2)sc2ncn(CC(=O)N3CC(C)CC(C)C3)c(=O)c12 (stereo not drawn) | 4.35% |
| CCOc1c(S(=O)(=O)NCc2ccco2)ccc(Cl)c1Cl | 5.49% |
| CCOC(=O)N1CCc2[nH]c3ccc(C)cc3c2C1 | -5.06% |
| Fc1cccc(Cl)c1C1C=C(c2cccnc2)Nc2nc3ccccc3n21 (stereo not drawn) | -5.05% |
| Cc1ccc(S(=O)(=O)NCCC(=O)NCc2nnc(O)c3ccccc23)cc1 | 2.99% |
| CCCCOc1ccc(C2C(=O)N(C3CCCCC3)CC(=O)N2C2CCCC2)cc1 (stereo not drawn) | -2.26% |
| CN1CCN(Cc2cccc(O)c2)CC1 | -2.08% |

| Structure (SMILES) | % Inhibition @ 10 uM |
| --- | --- |
| CCCCN(CCCC)S(=O)(=O)c1cc(C(=O)OCC)n(C)c1 | -1.06% |
| NC(=O)C1CCCN(Cc2ccccc2)C1 (stereo not drawn) | -1.21% |
| O=C(CC1Sc2ccc(C(F)(F)F)cc2NC1=O)Nc1ccc(Cl)cc1 (stereo not drawn) | -3.69% |
| COc1ccc(-c2nc(-c3cccc(OC)c3)nc3ccc4ccccc4c23)cc1 | 5.64% |
| CCCCCCNC(=O)Cc1nc2nc(C)cc(C)n2n1 | 1.27% |
| CC(C)CSc1nc(N2CCOCC2)c2c(c1C#N)CCCC2 | -5.48% |
| Nc1nc(N)nc(C(c2ccccc2)c2ccccc2)n1 | -2.42% |
| CCC(=O)C1=C(Nc2cccc3ccccc23)CC(C)(C)CC1=O | -1.64% |
| C/C(=C\C(=O)NCC(C)c1ccccc1)c1ccccc1 (stereo not drawn) | 0.986% |
| CN(CC(=O)NCCN1CCC(Cc2ccccc2)CC1)S(=O)(=O)c1cccc2nsnc12 | 0.317% |
| CC(C)NC(=O)c1cc(-c2ccc(Cl)cc2)on1 | -2.65% |
| CCOC(=O)c1c(N)sc2c(O)c(Br)ccc12 | -4.3% |
| COc1ccc2cc(CN(Cc3ccco3)S(=O)(=O)c3ccc(C(C)=O)cc3)c(O)nc2c1 | -2.84% |
| CCCCN(CCCNC(=O)c1ccc2nc(N3CCOCC3)sc2c1)Cc1ccccc1 | 3.3% |
| COc1ccc(-n2c(Cc3cccn3C)nnc2SCC(=O)Nc2nnc(C)s2)cc1 | -7.89% |
| O=[N+]([O-])c1ccc(N2CCN(Cc3ccc(Br)s3)CC2)cc1 | 1.48% |
| NS(=O)(=O)c1ccc(CCNC(=O)c2ccccc2Cl)cc1 | -6.6% |
| CC1CNC2=C(C(=O)Nc3cccc4ccccc34)C(=O)CC(c3ccc4c(c3)OCO4)N21 (stereo not drawn) | 0.658% |
| CCOC12NC(=O)CC(=O)N1C(c1ccccc1)=CS2 (stereo not drawn) | 10.4% |
| CC(=O)c1cc(-c2ccccc2)n(CCC(=O)NC2CCCc3ccccc32)c1C (stereo not drawn) | 3.07% |
| Cc1ccc(OC(C)C(=O)Nc2nccs2)cc1 (stereo not drawn) | -2.76% |
| CCN(Cc1ccccc1)Cc1ccncc1 | -2.02% |
| CN(C)C(C#N)c1cn(C)c2ccccc12 (stereo not drawn) | 1.67% |
| O=[N+]([O-])c1ccc(CS(=O)(=O)Nc2ccccc2Cl)cc1 | -12.4% |
| COc1cc(C(=O)Nc2cccc(-c3nc4ccccc4[nH]3)c2)cc(OC)c1OC | -1.28% |

| Structure (SMILES) | % Inhibition @ 10 uM |
| --- | --- |
| O=S(=O)(c1ccccc1)N1C2C=CC(C2)C1(C(F)(F)F)C(F)(F)Cl (stereo not drawn) | 2.19% |
| CSc1nc(N)c2c3c(sc2n1)CN(Cc1ccccc1)CC3 | -1.66% |
| O=C1c2ccccc2C(=O)N1CCn1c2ccc(Cl)cc2c2nc3ccccc3nc21 | -1.52% |
| CCC(=O)/C=C1\Sc2ccc(OC)cc2N1CCO | 2.38% |
| CCCc1[nH]nc2c1C(c1ccc(C)o1)C(C#N)=C(N)O2 (stereo not drawn) | 0.751% |
| Cc1ccc(C2CC(C(F)(F)F)n3ncc(C(=O)N(C)C4CCCCC4)c3N2)cc1 (stereo not drawn) | 6.42% |
| CCOc1ccc(NC(=O)CN2C(=O)S/C(=C/c3cc(C)n(-c4cccnc4)c3C)C2=O)cc1 | -0.088% |
| CC(C)C1C(=O)NC(=S)N(c2ccccc2)C1=O (stereo not drawn) | 1.42% |
| CC1=C(C)OC(C)(C(=O)/C=C/c2ccccc2)CC1 (stereo not drawn) | -0.239% |
| CCc1nn(C(C)C(=O)N2CCc3ccccc3C2)c(=O)c2cc3occc3n12 (stereo not drawn) | 1.38% |
| CC(=O)NC1(c2ccccc2)CC(C)N(C)CC1C (stereo not drawn) | -2.51% |
| Cc1onc(-c2ccccc2Cl)c1C(=O)N1CCN(c2cccc(Cl)c2)CC1 | -3.35% |
| Cc1nn(CCCC(=O)NCc2ccc(Cl)cc2)c(=O)c2cc3sccc3n12 | 4.95% |
| O=C1NC(=O)N(Cc2ccccc2)C(=O)/C1=C\c1c[nH]c2ccccc12 | 5.3% |
| COc1ccc(NC(=O)c2cc(OC)c(OC)c(OC)c2)cc1 | 6.69% |
| Cc1cccc2sc(NC(=O)c3ccccc3C(=O)O)nc12 | 6.12% |
| CCCNC(=O)Cc1c(C)nc2c(-c3ccc(F)cc3)c(C)nn2c1C | -4.24% |
| CCc1ccc(-c2nc(CN3CCC(C(=O)O)CC3)c(C)o2)cc1 | 1.42% |
| CCOc1cc(CNC(=O)c2ccc3nc(CC)c(CC)nc3c2)cc(OCC)c1OCC | -7.2% |
| Cc1cccc(NC(=O)COc2ccc3ccccc3c2)c1 | -5.67% |
| COc1ccccc1/C=C/C1=NC(=C\c2ccc3c(c2)OCO3)/C(=O)O1 | 0.997% |
| Cc1ccc2c(Cl)c(C(=O)O)sc2c1 | 3.44% |
| COc1ccc(CCNC(=O)C2CCN(S(=O)(=O)c3c(C)noc3C)CC2)cc1OC | 3.59% |
| CCc1ccc(OCC(=O)Nc2sc3c(c2C(N)=O)CCCC3)c(Br)c1 | -0.312% |
| COc1ccccc1CNC(=O)CCCn1ncn2c(cc3occc32)c1=O | -3.79% |

| Structure (SMILES) | % Inhibition @ 10 uM |
| --- | --- |
| O=C(O)C1CCCCN1Cc1ccccc1 (stereo not drawn) | -1.25% |
| CC(O)(c1ccc(Cl)cc1)C(CN1CCCCC1)c1ccccc1 (stereo not drawn) | 1.67% |
| CC1=C(C(=O)Nc2ccc(C)cn2)C(c2cnn(C)c2)C2=C(O)CCCC2=N1 (stereo not drawn) | 2.46% |
| O=C1C=C(N2CCOCC2)C(N2CCOCC2)=CC1=O | -1.84% |
| Cc1sc2c(c1C)c(=O)n(CCc1ccccc1)c(=O)n2CC(=O)c1ccccc1 | 14.2% |
| CCc1ccccc1N(CC(=O)Nc1ccc(C(C)C)cc1)S(C)(=O)=O | 6.79% |
| CCCSc1nnc(NC(=O)c2cc(=O)c3cc(C)ccc3o2)s1 | -3.24% |
| COc1ccccc1CNS(=O)(=O)c1ccc(OC)c(Cl)c1Cl | -2.83% |
| CC12CN3CC(C)(CN(C1)C3c1ccc3c(c1)OCO3)C2O (stereo not drawn) | -2.37% |
| O=C1c2cccnc2C(=O)N1c1cccc(-c2nc3ccccc3s2)c1 | -0.865% |
| CCN1CCN(CC(=O)Nc2sc3c(c2C#N)CCC(C)C3)CC1 (stereo not drawn) | 0.746% |
| N#Cc1c(Cl)nc(-c2ccccc2)c2c1CCC2 | -5.72% |
| Nc1ccc(C(=O)Nc2cccc(Cl)c2)cc1 | 2.37% |
| CC(=O)c1cccc(NC(=O)c2ccc(C)cc2)c1 | 1.35% |
| N#CCNC(=O)[C@H](CCSCc1ccccc1)NC(=O)c1ccccc1 | 2.86% |
| CCOc1ccc(C=C2C(=O)OC(c3ccccc3)OC2=O)cc1 (stereo not drawn) | -4% |
| COc1ccccc1/C=C/C1=NN(c2cccc(Cl)c2)C(c2ccccc2OC)C1 (stereo not drawn) | 2.02% |
| CCOc1ccc(-n2c(C)c(C(=O)OC)c3cc(O)ccc32)cc1 | -8.71% |
| COc1ccc(CNc2nc(-c3ccco3)nn2C(=O)c2cccc(C)c2)cc1 | 0.248% |
| COc1ccc2nc(C)c(CC=C(Cl)Cl)c(O)c2c1 | -0.711% |
| Cc1cs/c(=N\C(=O)c2ccccc2)n1-c1ccccc1 | 5.28% |
| CC(C)Oc1c(C2(c3ccccc3)SCCCS2)c(=O)c1=O | -0.941% |
| Cc1nn(CCC(=O)NCc2ccccc2Cl)c(=O)c2nn(-c3ccccc3)c(C)c12 | -5.54% |
| CCOC(=O)c1c(C)[nH]c(C)c1S(=O)(=O)Nc1cccc(C)n1 | 0.882% |
